# Results: PubChem BioAssay AID624296 (National Center for Advancing Translational Sciences (NCATS), 2012)
# Where “and” joins values, the source holds several entries; their conditions need not be identical. Equal entries are not always repeated. The whole screen tested about 350,000 compounds, of which about 9,900 (2.8%) were called active. The shares of active, inactive and inconclusive entries below differ from those in the screen. The call rests on the fitted dose curve; in most records, active means well fitted activation curve with a large enough effect; inconclusive means small, poorly fitted or top-dose-only effect; inactive means no such curve, though single readings can be large or run the other way. A potency beside an inconclusive call is a rough fit, not a confirmed value. Where a structure was tested more than once in an assay, its records may differ in their call.
# Experiment: A quantitative high throughput screen for small molecules that induce DNA re-replication in MCF 10a normal breast cells. Further: nearly all actives have a fitted effect of over 50% in size. On activity, positive = re-replication: % of control where 0% means no effect.
# Details: MCF 10A DNA re-replication, Hoechst nuclear intensity, 48 h; activity, positive = re-replication: at 46.1 µM (top of the series)
# Potency means the concentration at half of the fitted maximal effect; tags describe the fitted curve by direction and shape.
SMILES,"activity, positive = re-replication",Potency
C#CCN1C(=O)C2(C(C#N)=C(N)OC(C)=C2C(=O)OCc2ccccc2)c2ccccc21 (stereo not drawn),inactive: 19.5%,
O=C(CCl)Nc1nccs1,,"inconclusive: 29.1 µM [activator, single point]"
c1ccc(-c2[nH]c(-c3ccccc3)[n+](CC3CO3)c2-c2ccccc2)cc1 (stereo not drawn),,active: 13 µM
C=C(Cl)CSC(=S)N(CC)CC,inactive: -2.52%,
Cc1cccc(-n2c(-c3ccc([N+](=O)[O-])cc3)nc3ccccc3c2=O)c1,inactive: 4.74%,
CCOc1ccc(/C=C/C(=O)C(C(N)=O)=C2SCCS2)cc1,,"inconclusive: 7.31 µM [activator, partial curve, poor fit]"
CC(c1ccc(F)cc1)n1cc(C(=O)NCc2ccc3c(c2)OCO3)nn1 (stereo not drawn),inactive: 2.99%,
Cc1nc2cc(C(F)(F)F)ccc2n1C1CCN(Cc2nnnn2Cc2ccc3c(c2)OCO3)CC1,,"inconclusive: 29.1 µM [activator, single point]"
COc1cc(C2C(C#N)=C(N)OC3=C2C(=O)CC(C)(C)C3)ccc1OC(=O)N1CCOCC1 (stereo not drawn),,"inconclusive: 3.66 µM [activator, partial curve, poor fit]"
CCc1ccc(CN2CCN(Cc3cc(Br)ccc3O)CC2)cc1,,"inconclusive: 20.6 µM [activator, single point]"
CC1CCCN(c2ccc(C(=O)N3CCC4(CC3)OCCO4)cc2[N+](=O)[O-])C1 (stereo not drawn),,"inconclusive: 3.66 µM [activator, full curve]"
N#CC12CNCC1CN=N2 (stereo not drawn),inactive: -1.49%,
CC1CN(C)C(C)(C)CC1(O)c1ccccc1 (stereo not drawn),,active: 16.4 µM
COC(=O)C1=C(c2cc3ccccc3o2)C[C@@H]2CC[C@H]1N2C(=O)N1CCCCC1,,"inconclusive: 4.61 µM [activator, full curve, poor fit]"
CCOc1ccc(CN2CCN(C(=O)Cc3ccccc3)CC2)cc1,inactive: 10.9%,
O=c1[nH]c(=O)n(CCc2ccc(F)cc2)c(O)c1/C=N/N1CCCCC1,,"inconclusive: 6.51 µM [activator, single point]"
O=C(NC12CC3CC(CC(C3)C1)C2)OC1CN2CCC1CC2 (stereo not drawn),,"inconclusive: 0.92 µM [activator, full curve, poor fit]"
COc1ccc(CN2CC=C(c3ccc(F)cc3)CC2)cc1Br,,"inconclusive: 16.4 µM [activator, single point]"
COc1ccc(CCn2c(O)c(C=Nc3ccc(NC(C)=O)cc3)c(=O)[nH]c2=O)cc1OC,,"inconclusive: 25.9 µM [activator, single point]"
Clc1ccc2[nH]c3c(c2c1)CCNC3,,"inconclusive: 29.1 µM [activator, single point]"
COC(=O)C1=C(c2ccc(-c3ccccc3)c(F)c2)C[C@@H]2CC[C@H]1N2C(=O)NCc1ccco1,,active: 20.6 µM
O=C(Nc1nccs1)c1c(O)c2c(n(Cc3ccco3)c1=O)CCCC2,inactive: 9.66%,
CC(=O)C1CCC2(O)C3CCC4=CC(=O)CCC4(C)C3CCC12C (stereo not drawn),inactive: -2.37%,

SMILES,"activity, positive = re-replication",Potency
CC(C)(O)/C=C/C(=O)[C@](C)(O)C1[C@H](O)C[C@@]2(C)C3CC=C4C(C[C@H](O)[C@@H](O)C4(C)C)[C@]3(C)C(=O)C[C@]12C (stereo partly drawn),,active: 1.3 µM
CC1CCCCC12C(=O)NC(=O)NC2=O (stereo not drawn),inactive: -3.49%,
CNC(=O)Oc1cccc2ccccc12,,inactive
c1cnc2c(c1)ccc1ncccc12,inactive: 2.54%,
CCCC(=O)NC1=C(N2CC2)C(=O)C(NC(=O)CCC)=C(N2CC2)C1=O,,"inconclusive: 9.2 µM [activator, partial curve]"
O=C1Nc2ccccc2/C1=C/c1cnc[nH]1,,"inconclusive: 20.6 µM [activator, partial curve, poor fit]"
Cc1cc(C)c(C(=O)CN2CCOCC2)c(C)c1,,active: 8.2 µM
C/C(=N\Nc1ccccc1)c1c(O)[nH]c(=O)[nH]c1=O,,"inconclusive: 29.1 µM [activator, single point]"
COC(=O)C1=C(c2ccc(F)cc2F)C[C@@H]2CC[C@H]1N2C(=O)NC1Cc2ccccc2C1,,"inconclusive: 18.4 µM [activator, partial curve, poor fit]"
COC(=O)C1=C(c2ccc(F)cc2OCc2ccccc2)C[C@@H]2CC[C@H]1N2C(=O)NCCCc1ccccc1,,"inconclusive: 20.6 µM [activator, partial curve]"
COC(=O)C1=C(c2ccc(S(C)(=O)=O)cc2)C[C@@H]2CC[C@H]1N2C(=O)N1CCCC1,inactive: 0.817%,
Cc1cc(OCC(=O)N2C[C@H]3C[C@@H](C2)c2cccc(=O)n2C3)c2c(C)c(C)c(=O)oc2c1,,"inconclusive: 29.1 µM [activator, single point]"
O=C(N/N=C/c1cccc([N+](=O)[O-])c1)c1cnccn1,,"inconclusive: 25.9 µM [activator, single point]"
CCCCn1c(N)c(N(CC(C)C)C(=O)c2cc(Br)c(Br)s2)c(=O)[nH]c1=O,,"inconclusive: 29.1 µM [activator, partial curve, poor fit]"
Cc1cccc(N/N=C/c2c(O)[nH]c(=S)[nH]c2=O)c1,,"inconclusive: 20.6 µM [activator, single point]"
CCCCNC(=O)c1c(N)n(CCCOC)c2nc3ccccc3nc12,,active: 10.3 µM
O=[N+]([O-])c1ccc(-c2ccc(C=Nc3cccc4ccccc34)o2)cc1,,active: 8.2 µM
CC1N=C(c2ccccc2Cl)c2cc(Br)ccc2NC1=O (stereo not drawn),,"inconclusive: 18.4 µM [activator, single point]"
C=C1C(=O)[C@@]23C[C@H]4[C@@H]5[C@@]6(C)CCC[C@@]57[C@@H]2[C@@H](O)[C@@H]1C[C@H]3[C@H]7N4C6,,active: 14.6 µM
COc1ccc(-n2c(O)c(C=NCCN3CCN(C(C)=O)CC3)c(=O)[nH]c2=S)cc1,inactive: 3.28%,
CC(C)CNc1c2c(nc3ccccc13)CCC2,inactive: -10.9%,
c1ccc(C(OCCN2CCNCC2)c2ccccc2)cc1,,"inconclusive: 3.55 µM [activator, full curve]"
Cc1ccc(-n2c(O)c(/C=C3/C(c4ccccc4)=Nc4ccccc43)c(=O)[nH]c2=O)cc1,,active: 5.17 µM

SMILES,"activity, positive = re-replication",Potency
O=c1c2ccccc2nc(-c2ccc([N+](=O)[O-])cc2)n1-c1ccccc1,inactive: -0.436%,
CC(C)[C@@]1(NC(=O)[C@@H]2C[C@@H]3c4cccc5[nH]cc(c45)C[C@H]3N(C)C2)O[C@@]2(O)[C@@H]3CCCN3C(=O)[C@H](Cc3ccccc3)N2C1=O,,active: 20.6 µM
Cc1ccc(-n2c(O)c(C=NCCN(C)C)c(=O)[nH]c2=O)cc1,,"inconclusive: 25.9 µM [activator, partial curve]"
O=C1CN=C(c2cccc(Br)c2)c2cc(Br)ccc2N1,,"inconclusive: 23.1 µM [activator, single point]"
CC(C)Nc1ccc(Nc2ccccc2)cc1,,"inconclusive: 13.3 µM [activator, partial curve] and inconclusive: 6.51 µM [activator, single point]"
COC(=O)C1=C(c2ccc(F)cc2OCc2ccccc2)C[C@@H]2CC[C@H]1N2C(=O)NC1CCN(Cc2ccccc2)CC1,,"inconclusive: 29.1 µM [activator, single point]"
CCNC(=O)O/N=C(\C)c1sc(-c2ccc(Cl)cc2)nc1C,,"inconclusive: 23.1 µM [activator, single point]"
C[C@]12CCC(=O)C[C@H]1CC[C@@H]1[C@@H]2CC[C@]2(C)C(=O)CC[C@@H]12,,"inconclusive: 29.1 µM [activator, single point]"
O=C(CC1CCCCC1)N1CCC(c2nc(-c3ccc(S(=O)(=O)N4CCCC4)cc3)no2)CC1,,"inconclusive: 23.1 µM [activator, single point]"
COc1cc(/C=C/c2nc3ccccc3c(=O)n2-c2cccc(O)c2)ccc1O,,"inconclusive: 23.1 µM [activator, single point]"
COC(=O)C1=C(c2c(C)noc2C)C[C@@H]2CC[C@H]1N2C(=O)NCCOc1ccccc1Cl,inactive: 12.7%,
Cc1cc(N(CCCl)CCCl)ccc1C=Cc1ccncn1,,"inconclusive: 29.1 µM [activator, single point]"
CCCCCC(O)C1C(=O)OC(C)C(O)\C=C/C=C\C=C/C=C\C=C(\C)C(O)C(O)C(O)CC(O)CC(O)CC(O)CC(O)CC1O (stereo not drawn),inactive: 4.93%,
C=C1C(=O)OC2CC3(C)OC3CCC(C)=CC(OC(C)=O)C12 (stereo not drawn),,active: 5.17 µM
CCCCCCCCCCCCOCCOCCOCCOCCOCCOCCOCCOCCOCCO,,"inconclusive: 33.5 µM [activator, single point]"
Clc1cc(Cl)cc(NC2=NCCS2)c1,,"inconclusive: 0.103 µM [activator, full curve, poor fit]"
O=P(O)(O)Cc1ccccc1OP(=O)(c1ccccc1)c1ccccc1,inactive: 20.5%,
O=c1c2ccccc2nc(/C=C/c2ccco2)n1-c1ccccc1O,,active: 23.1 µM
C=C(CC1CC(O)[C@]2(C)OC3CC4OC5C[C@]6(C)O[C@]7(C)CCC8OC9C[C@]%10(C)OC%11C(C)=CC(=O)OC%11CC%10OC9C[C@@H](C)C8OC7CC6O[C@]5(C)C/C=C\C4OC3CC2O1)C(=O)O (stereo partly drawn),,"inconclusive: 0.259 µM [activator, full curve, poor fit]"
CC1(C(=O)O)CCCC2(C)c3cc(O)ccc3CCC12 (stereo not drawn),,active: 18.4 µM
CC12CCC3C(CCC4CC(=O)CCC43C)C1CC(=NO)C2=O (stereo not drawn),,"inconclusive: 11.6 µM [activator, partial curve, poor fit]"
C=CC(=O)OCCO,,"inconclusive: 10.3 µM [activator, partial curve, poor fit]"
